From PubChem BioAssay AID504466 (National Center for Advancing Translational Sciences (NCATS), 2011)
The campaign covered roughly 330,000 compounds. About 4,200 (1.3%) were called active. This list was built around the results that the source calls inconclusive (neither active nor inactive); the mix of calls is not that of the screen. Calls follow the shape of the dose curve; as a rule, active = well fitted activation curve with a large enough effect; inconclusive = small, poorly fitted or top-dose-only effect; inactive = no such curve, though single readings can be large or run the other way. A potency beside an inconclusive call is a rough fit, not a confirmed value.
Potency is read from the fitted curve at half-maximal effect; tags tell the direction and shape of the fitted curve.

Test: qHTS screen for small molecules that induce genotoxicity in human embryonic kidney (HEK293T) cells expressing luciferase-tagged ELG1; also: nearly all actives have a fitted effect of over 60% in size; as to activity change, positive = activation: % of control where 0% means no effect
Conditions: HEK293T ELG1-luciferase reporter, luminescence, 16 h; series mostly up to 46 µM; activity change, positive = activation: at the top concentration
Procedure, shortened: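 Quantitative HTS format in 1536-well plates. HEK293T ELG1-luciferase reporter cells receive test compound and are incubated 16 hr at 37 °C, 5% CO2; ONE-Glo added, 30 min room temperature, then luminescence read.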
In the case of `COc1ccc(CCC(=O)N(c2nnc(-c3cccnc3)s2)C(C)C)cc1`, the “activity change, positive = activation” value was inactive: -5.45%.
In the case of `CCn1nc(C)c(/C=N/NC(=O)c2c[nH]c3ccccc23)c1C`, the Potency was inconclusive: 18.4 µM [activator, single point].
With `O=C(CSc1ccc2ccccc2n1)Nc1nsc(-c2ccc(Cl)cc2)n1` the “activity change, positive = activation” value was inactive: 1.74%.
For `CCOC(=O)C1=C(COC(=O)/C=C/c2ccccc2Cl)NC(=O)NC1C` (stereo not given), the Potency was inconclusive: 11.6 µM [activator, partial curve, poor fit].
In the case of `O=C(Nc1ccc(C2SCCS2)cc1)c1ccccc1`, the Potency was inconclusive: 3.66 µM [activator, partial curve].
In the case of `COc1ccc(-c2cc(C(=O)Nc3ccccc3)on2)cc1`, the Potency was inconclusive: 20.6 µM [activator, single point].
In the case of `CC1CCN(C2=NC(=O)/C(=C/c3ccccc3F)S2)CC1`, the Potency was active: 9.2 µM.
In the case of `CSc1nc(-c2ccc(Cl)cc2)nn1S(=O)(=O)c1ccc(Cl)cc1`, the Potency was inconclusive: 14.6 µM [activator, partial curve, poor fit].
In the case of `NC(=O)COC(=O)c1ccc2noc(-c3ccccc3)c2c1`, the “activity change, positive = activation” value was inactive: 13.5%.
In the case of `Cc1cc(=O)n(CC(=O)O)c2ccccc12`, the “activity change, positive = activation” value was inactive: 1.52%.
In the case of `O=C(c1cc(-c2cccs2)on1)N1CCCCC1`, the Potency was inconclusive: 2.31 µM [activator, partial curve].
For `Cn1ccnc1C(O)c1ccc(OCc2ccccc2)cc1` (stereo not given), the Potency was inconclusive: 12.6 µM [activator, single point].
For `CCOc1ccc2oc(C(=O)NC(C)(C)CC)c(C)c2c1`, the Potency was inconclusive: 20.6 µM [activator, partial curve, poor fit].
With `CCOc1cc(/C=C2\N=C3CCCCCN3C2=O)ccc1O` the Potency was inconclusive: 16.4 µM [activator, single point].
With `CCCCOc1ccc(C(=S)N2CCC(C(N)=O)CC2)cc1` the Potency was inconclusive: 9.2 µM [activator, partial curve, poor fit].
With `Cc1cccc(NC(=O)CSc2nc3c([nH]c4ccccc43)c(=O)n2C)c1` the Potency was inconclusive: 23.1 µM [activator, partial curve, poor fit].
For `O=C(O)Cc1ccc(NC(=O)c2ccc3c(c2)C(=O)N(CC2CCCO2)C3=O)cc1` (stereo not given), the “activity change, positive = activation” value was inactive: 15.3%.
For `N#C/C(=C/c1ccc(N2CCOCC2)o1)C(=O)Nc1ccccc1`, the Potency was inconclusive: 5.17 µM [activator, partial curve].
With `COC(CNS(=O)(=O)c1cc2c3c(c1)CCN3C(=O)CC2)OC` the “activity change, positive = activation” value was inactive: 3.42%.
With `C[C@@H]1COC(=O)[C@@H](CC(=O)OC(C)(C)C)C/C=C\C[C@@H](CC(=O)N[C@@H](CO)Cc2ccccc2)C(=O)N1` the “activity change, positive = activation” value was inactive: 1.64%.
